# Results reported in the supplement of paper PMC12217912.
# The other results are listed elsewhere or left out. The full chains were built here from the parent and the listed change. Values near 0.05 are background.
# B1: TEV protease; numbered along this chain (parent)
# chain: MGESLFKGPRDYNPISSSICHLTNESDGHTTSLYGIGFGPFIITNKHLFRRNNGTLVVQSLHGVFKVKDTTTLQQHLVDGRDMIIIRMPKDFPPFPQKLKFREPQREERICLVTTNFQTKSMSSMVSDTSCTFPSGDGIFWKHWIQTKDGQCGSPLVSTRDGFIVGIHSASNFTNTNNYFTSVPKNFMELLTNQEAQQWVSGWRLNADSVLWGGHKVFMVKPEEPFQPVKEATQL
# Variants of: B1
# Experiment: raw area under fraction-flipped curve 0-4 h after induction (AUC4h, not background-subtracted), DNA-recorder readout of cleavage of the substrate (dimensionless); higher = more cleavage of the substrate by the protease variant
# Settings: temperature: 34 °C; time window: 0-4 h after rhamnose induction
# 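Further: Bxb1 expression induced with 0.2% (w/v) L-rhamnose at OD600 near 0.5, cultures sampled hourly, flipped fraction per protease–substrate barcode pair counted by paired-end Illumina sequencing.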
Variant,area with substrate ENLCFQS,area with substrate ENLEFQS,area with substrate ENLFFQS,area with substrate ENLKFQS,area with substrate ENLLFQS,area with substrate ENLNFQS,area with substrate ENLPFQS,area with substrate ENLQFQS,area with substrate ENLSFQS,area with substrate ENLVFQS,area with substrate ENLDFQS,area with substrate ENLGFQS,area with substrate ENLHFQS,area with substrate ENLRFQS,area with substrate ENLWFQS,area with substrate ENLIFQS,area with substrate ENLMFQS
MGESLFKGPRDYNPISSSICHLTNESDGHTTSLYGIGFGPFIITNKHLFRRNNGPLVVQSLHGVFKVKDTTTLQQHLVDGRDMIIIRMPKDFPPFPQKLKFREPQREERICLVTTNFQTKSMSSMVSDTSCTFPSGDGIFWKHWIQTKDGQCGSPLVSTRDGFIVGIHSASNFTNTNNYFTSVPKNFMELLTNQEAQQWVSGWRLNADSVLWGGHKVFMVKPEEPFQPVKEATQL [T55P],0.0672,0.0688,0.0904,0.0687,0.0422,0.0604,0.0574,0.067,0.0592,0.0624,–,–,–,–,–,–,–
MGESLFKGPRDYNPISSSICHLTNESDGHTTSLYGIGFGPFIITNKHLFRRNNGTNVVQSLHGVFKVKDTTTLQQHLVDGRDMIIIRMPKDFPPFPQKLKFREPQREERICLVTTNFQTKSMSSMVSDTSCTFPSGDGIFWKHWIQTKDGQCGSPLVSTRDGFIVGIHSASNFTNTNNYFTSVPKNFMELLTNQEAQQWVSGWRLNADSVLWGGHKVFMVKPEEPFQPVKEATQL [L56N],0.0422,0.0433,0.0409,0.0548,–,0.0442,0.0643,–,0.0681,–,0.061,0.0259,0.0646,0.0551,–,–,–
MGESLFKGPRDYNPISSSICHLTNESDGHTTSLYGIGFGPFIITNKHLFRRNNGTLVVQSLHPVFKVKDTTTLQQHLVDGRDMIIIRMPKDFPPFPQKLKFREPQREERICLVTTNFQTKSMSSMVSDTSCTFPSGDGIFWKHWIQTKDGQCGSPLVSTRDGFIVGIHSASNFTNTNNYFTSVPKNFMELLTNQEAQQWVSGWRLNADSVLWGGHKVFMVKPEEPFQPVKEATQL [G63P],0.0624,0.0561,0.0649,0.0578,0.0638,0.0445,0.0665,0.0526,0.0489,0.0743,0.0441,0.0621,0.062,–,0.0419,–,–
MGESLFKGPRDYNPISSSICHLTNESDGHTTSLYGIGFGPFIITNKHLFRRNNGTLVVQSLHGVCKVKDTTTLQQHLVDGRDMIIIRMPKDFPPFPQKLKFREPQREERICLVTTNFQTKSMSSMVSDTSCTFPSGDGIFWKHWIQTKDGQCGSPLVSTRDGFIVGIHSASNFTNTNNYFTSVPKNFMELLTNQEAQQWVSGWRLNADSVLWGGHKVFMVKPEEPFQPVKEATQL [F65C],0.0394,0.145,0.0733,0.0692,0.0727,0.0901,0.0709,0.0632,0.0901,–,0.0602,0.0636,0.0741,–,0.0743,0.103,0.0938
MGESLFKGPRDYNPISSSICHLTNESDGHTTSLYGIGFGPFIITNKHLFRRNNGTLVVQSLHGVFKVKDCTTLQQHLVDGRDMIIIRMPKDFPPFPQKLKFREPQREERICLVTTNFQTKSMSSMVSDTSCTFPSGDGIFWKHWIQTKDGQCGSPLVSTRDGFIVGIHSASNFTNTNNYFTSVPKNFMELLTNQEAQQWVSGWRLNADSVLWGGHKVFMVKPEEPFQPVKEATQL [T70C],0.059,0.0533,0.0712,0.0698,0.0785,0.0629,–,0.0719,–,–,0.0688,0.0743,–,0.0604,–,0.0627,0.0546
MGESLFKGPRDYNPISSSICHLTNESDGHTTSLYGIGFGPFIITNKHLFRRNNGTLVVQSLHGVFKVKDTTTLNQHLVDGRDMIIIRMPKDFPPFPQKLKFREPQREERICLVTTNFQTKSMSSMVSDTSCTFPSGDGIFWKHWIQTKDGQCGSPLVSTRDGFIVGIHSASNFTNTNNYFTSVPKNFMELLTNQEAQQWVSGWRLNADSVLWGGHKVFMVKPEEPFQPVKEATQL [Q74N],0.0618,–,0.0923,–,–,0.06,–,–,–,–,–,–,0.078,–,–,–,0.0852
MGESLFKGPRDYNPISSSICHLTNESDGHTTSLYGIGFGPFIITNKHLFRRNNGTLVVQSLHGVFKVKDTTTLTQHLVDGRDMIIIRMPKDFPPFPQKLKFREPQREERICLVTTNFQTKSMSSMVSDTSCTFPSGDGIFWKHWIQTKDGQCGSPLVSTRDGFIVGIHSASNFTNTNNYFTSVPKNFMELLTNQEAQQWVSGWRLNADSVLWGGHKVFMVKPEEPFQPVKEATQL [Q74T],0.0601,–,–,0.0504,–,–,–,0.0615,0.0597,0.0457,0.0678,–,0.0979,0.0603,–,–,0.0573
MGESLFKGPRDYNPISSSICHLTNESDGHTTSLYGIGFGPFIITNKHLFRRNNGTLVVQSLHGVFKVKDTTTLQQYLVDGRDMIIIRMPKDFPPFPQKLKFREPQREERICLVTTNFQTKSMSSMVSDTSCTFPSGDGIFWKHWIQTKDGQCGSPLVSTRDGFIVGIHSASNFTNTNNYFTSVPKNFMELLTNQEAQQWVSGWRLNADSVLWGGHKVFMVKPEEPFQPVKEATQL [H76Y],0.0618,–,0.0821,0.0726,–,0.0916,0.0566,0.0529,–,0.0676,0.0702,–,0.056,0.0602,0.0488,–,–
MGESLFKGPRDYNPISSSICHLTNESDGHTTSLYGIGFGPFIITNKHLFRRNNGTLVVQSLHGVFKVKDTTTLQQHLVRGRDMIIIRMPKDFPPFPQKLKFREPQREERICLVTTNFQTKSMSSMVSDTSCTFPSGDGIFWKHWIQTKDGQCGSPLVSTRDGFIVGIHSASNFTNTNNYFTSVPKNFMELLTNQEAQQWVSGWRLNADSVLWGGHKVFMVKPEEPFQPVKEATQL [D79R],0.0566,0.0616,0.0712,0.0906,0.081,0.0749,–,0.0634,0.0738,0.109,0.0613,0.0741,0.0551,0.0775,0.0561,0.0693,0.0728
MGESLFKGPRDYNPISSSICHLTNESDGHTTSLYGIGFGPFIITNKHLFRRNNGTLVVQSLHGVFKVKDTTTLQQHLVDGRCMIIIRMPKDFPPFPQKLKFREPQREERICLVTTNFQTKSMSSMVSDTSCTFPSGDGIFWKHWIQTKDGQCGSPLVSTRDGFIVGIHSASNFTNTNNYFTSVPKNFMELLTNQEAQQWVSGWRLNADSVLWGGHKVFMVKPEEPFQPVKEATQL [D82C],0.0511,0.089,0.0608,–,–,0.0632,0.0589,–,0.0691,0.0496,–,0.0866,0.0594,–,0.0613,0.0536,–
